Source: PubChem BioAssay AID463173 (ICCB-Longwood Screening Facility, Harvard Medical School, 2010)
Out of some 52,000 compounds screened, about 1,700 (3.3%) were called active. Cut-off read from the data, not from the text of the source: active = survival mostly below about 52% (no sharp cut-off); inactive = mostly above about 56%. This is one part of the list.

system: Wild type; test: S. aureus survival, RN4220 and DeltatarO strains – OD600, teichoic acid synthesis inhibitors, primary screen (AID 463173); details: S. aureus RN4220 wild type/DeltatarO growth, OD600, 18 h, hits give low values, screened at 18.75 µg/mL (by protocol)

| Structure (SMILES) | survival |
| --- | --- |
| COc1ccc(OC)c(C2CC(=O)Nc3c2c(=O)[nH]c2ncnn32)c1 (stereo not given) | inactive: 87% |
| COc1ccc(C2NC(=O)N(C)C3=C2C(=O)N(c2ccc(C(=O)O)cc2)C3)cc1 (stereo not given) | inactive: 72% |
| CCc1ccc2occ(CC(=O)Nc3c(C(=O)c4ccc(C)cc4)oc4ccccc34)c2c1 | inactive: 87% |
| Cn1c(C(=O)Nc2ccccc2)cc2sccc21 | inactive: 148% |
| CCOc1ccc(NC(=O)Cn2c(=O)n(CCCCCC(=O)NCc3ccccc3)c(=O)c3sccc32)cc1 | inactive: 85% |
| Cc1ccc2c(CNCc3ccc(C)o3)c(C(=O)O)n(Cc3ccccc3C)c2c1 | inactive: 55% |
| COc1ccc(S(=O)(=O)Nc2c(C)nc3nc[nH]n3c2=O)cc1 | inactive: 129% |
| Cc1cc(C)nc(N(C#N)Cc2ccccc2)n1 | inactive: 106% |
| Cc1cc(S(=O)(=O)C(CNC(=O)c2ccc(F)c(F)c2)c2cccs2)ccc1F (stereo not given) | inactive: 71% |
| Cc1cc(C)c2c(CC(=O)Nc3ccc(S(=O)(=O)Nc4nc(C)cc(C)n4)cc3)coc2c1 | inactive: 77% |
| COc1ccc(CNC(=O)c2cc3cc(OC)ccc3oc2=O)cc1 | inactive: 88% |
| CC(=O)N1CCCc2cc(S(=O)(=O)N3CCCC(C(=O)N4CCN(c5ccccc5)CC4)C3)ccc21 (stereo not given) | inactive: 70% |
| Cc1ccc(S(=O)(=O)n2nc(-c3ccc(Cl)cc3)nc2NCc2ccc(F)cc2)cc1 | inactive: 74% |
| Cc1ccc(-c2ccc(=O)n(CC(=O)NCCc3ccccc3)n2)cc1 | inactive: 65% |
| O=S(=O)(NCCc1csc2nc(-c3ccccc3)nn12)c1cc(F)ccc1F | inactive: 64% |
| COc1ccc2c(c1)cc1c(=O)n(CC(=O)NC(C)CCc3ccccc3)nc(C)n12 (stereo not given) | inactive: 131% |
| CCCCn1cnc2cc(NCc3ccccc3Cl)ccc21 | active: -16% |
| COc1ccc(-c2[nH]c(-c3ccc(Cl)cc3)nc2SCC(=O)NCC2CCCO2)cc1 (stereo not given) | inactive: 68% |
| Cc1ccc(NC(=O)C(=O)NCC(c2cccnc2)N2CCN(Cc3ccccc3)CC2)cc1F (stereo not given) | inactive: 84% |
| COC(=O)CSc1nc(C(C)(C)C)cc(C(F)(F)F)n1 | inactive: 112% |
| CCCSCCCNC(=O)C1CCN(c2nc3ccccc3nc2C(F)(F)F)CC1 | active: -3% |
| Cc1ccc(-n2ncc3c(Nc4cccc(C(=O)O)c4)ncnc32)cc1 | inactive: 67% |
| CC(Sc1ccccn1)C(=O)Nc1ccccc1 (stereo not given) | inactive: 110% |

| Structure (SMILES) | survival |
| --- | --- |
| Cc1oc(-c2ccc(C(=O)NCc3ccccc3)cc2)nc1CN1CCc2ccccc21 | inactive: 80% |
| COc1ccc(-c2nc3ccccc3s2)cc1NC(=O)c1ccccc1F | inactive: 138% |
| O=C(Cc1cccs1)NC1CC(=O)N(c2ccc(F)cc2)C1 (stereo not given) | inactive: 95% |
| CSc1cccc(NC(=O)Nc2ccccc2OCc2cc(=O)n3cc(C)ccc3n2)c1 | inactive: 81% |
| CCOCCCNC(=O)c1ccc(-n2c(-c3ccccc3)cc3c2CCC(C)C3)cc1 (stereo not given) | inactive: 123% |
| COc1ccc(-c2csc3ncnc(Nc4cccc(OC)c4)c23)cc1 | inactive: 73% |
| CC(C)(C)NC(=O)c1c(N)no[n+]1[O-] | inactive: 93% |
| Cc1ccc2c(c1)C(c1ccc(F)cc1)N(C(=O)c1ccc(S(=O)(=O)N3CCCCC3)cc1)CC(=O)N2 (stereo not given) | inactive: 148% |
| COc1ccc(C(=O)Nc2ccc3nc(SCC(=O)N4CCc5ccccc54)sc3c2)cc1 | inactive: 69% |
| CCC(=O)N1CCc2cc(Br)cc(S(=O)(=O)CCC(=O)N3CCN(c4cccc(C)c4)C(C)C3)c21 (stereo not given) | inactive: 72% |
| CCc1ccc(S(=O)(=O)Nc2ccc3c(c2)n(C)c(=O)c(=O)n3C)cc1 | inactive: 71% |
| COc1ccc(NC(=O)CCNS(=O)(=O)c2ccc3c(c2)CCCC(=O)N3)cc1Cl | inactive: 133% |
| O=C(NCc1ccc(Cl)cc1)NCc1noc2ccccc12 | inactive: 86% |
| Oc1cccc(N=Cc2sc(=S)n(C3CCCCC3)c2O)c1 | inactive: 135% |
| COc1ccc(-n2nc3cc(C)c(NC(=O)c4ccc(-c5ccc(Cl)cc5)o4)cc3n2)cc1 | inactive: 78% |
| Cc1cc(OCC(=O)Nc2cc(-c3nc4ncccc4o3)ccc2C)ccc1Cl | inactive: 88% |
| COC(=O)c1ccccc1NC(=O)C1=CC(c2cccs2)=NS(=O)(=O)N1C | inactive: 81% |
| CCOc1ccc2nc(N3CCCC(C(=O)NCCc4ccc(OCC)c(OCC)c4)C3)sc2c1 (stereo not given) | inactive: 71% |
| Cc1cccc(C)c1Nc1c(-c2ccccn2)nc2c(C)cccn12 | inactive: 77% |
| Cc1nn(CC(=O)Nc2ccc(OC(F)(F)F)cc2)c(=O)c2c(C)n(-c3ccc(Cl)cc3)nc12 | inactive: 19% |
| CC1CCCN(S(=O)(=O)Cc2ccccc2)C1 (stereo not given) | inactive: 105% |
| COc1ccc(OCc2ccc(-c3nc(C#N)c(NC(C)c4ccccc4)o3)o2)cc1 (stereo not given) | inactive: 92% |
| Cc1ccc2c(=O)cc(-c3cccc(F)c3)oc2c1 | inactive: 128% |

| Structure (SMILES) | survival |
| --- | --- |
| COc1ccc(CCNC(=O)c2nc(-c3ccc(Cl)cc3)n3c2CCCCC3)c(OC)c1 | inactive: 74% |
| NCCCC(=O)OC1CCCCC1 | inactive: 104% |
| COc1ccc(N(Cc2cc3cccc(C)c3[nH]c2=O)C(=O)c2cccc(Cl)c2)cc1 | inactive: 86% |
| CCc1cccc(-n2c(=O)c3cccnc3n2CC(=O)Nc2c(C)cc(C)cc2C)c1 | inactive: 64% |
| COc1cc(S(=O)(=O)NCCc2c(C)[nH]c3ccccc23)c(C)cc1C | inactive: 50% |
| COc1ccc2nc(N(Cc3cccnc3)C(=O)Cc3ccccc3)sc2c1 | inactive: 125% |
| Nc1nc(-c2ccccc2)nn1C(=O)c1cccs1 | inactive: 104% |
| CC(=O)N1CCc2cc(S(=O)(=O)C(C)CC(=O)Nc3ccc(Br)c(C)c3)ccc21 (stereo not given) | active: -6% |
| CN(C)S(=O)(=O)c1ccc(C(=O)NCCSc2c(-c3ccccc3)[nH]c3ccccc23)cc1 | inactive: 72% |
| On1c2c(c3c4nonc4ccc31)CCCC2 | active: 8% |
| CC(=O)Nc1ccc(S(=O)(=O)NC2=NCN(CCO)CN2)cc1 | inactive: 92% |
| Fc1cccc(-c2nnn3c2nc(NC2CCCCC2)c2ccccc23)c1 | inactive: 85% |
| COc1ccc(NC(=O)C2=C(C)Nc3ncnn3C2c2cccn2C)cc1 (stereo not given) | inactive: 85% |
| CC(C)C(c1nnnn1C1CCCC1)N(Cc1ccc(Cl)cc1)CC1CCCO1 (stereo not given) | inactive: 114% |
| CC1CCN(CC2CCN(C(=O)Nc3ccc(Br)cc3F)CC2)CC1 | inactive: 76% |
| Cc1cccc(-n2c(CNC(=O)c3cccc(F)c3)nnc2SCC(=O)Nc2ccccc2F)c1 | inactive: 69% |
| O=C(C1CCN(S(=O)(=O)Cc2ccccc2)CC1)N1CCN(c2cccc(C(F)(F)F)c2)CC1 | inactive: 88% |
| COc1ccccc1CNC(=O)CN1C(=O)COc2ccc(S(=O)(=O)NC3CCCC3)cc21 | inactive: 80% |
| CCOC(=O)c1c(NC(=O)c2ccc(S(=O)(=O)N(C)C3CCCCC3)cc2)sc2c1CCN(C(C)C)C2 | inactive: 66% |
| Cc1noc(C)c1S(=O)(=O)N(CC(=O)NCCc1ccccc1)c1ccc(C(C)C)cc1 | inactive: 129% |
| CCc1ccc(C(=O)NCC2(c3ccccc3)CCOCC2)o1 | inactive: 107% |
| Cc1ccc(Cl)cc1-n1ncc2c(N3CCN(Cc4ccccc4)CC3)ncnc21 | inactive: 120% |
| CCOCCCN1C(=O)c2ccccc2CC1(C)C(=O)NC1CCCCC1 (stereo not given) | inactive: 82% |

| Structure (SMILES) | survival |
| --- | --- |
| COc1ccc(CNC(=O)CN2C(=O)CSc3ccc(S(=O)(=O)N4CCC(C)CC4)cc32)cc1 | inactive: 69% |
| COc1ccc(/C=C/C(=O)Nc2nc(-c3cccs3)ns2)cc1 | inactive: 58% |
| CC1CCN(S(=O)(=O)c2nnc(NC(=O)c3cccc(Cl)c3)s2)CC1 | inactive: 37% |
| Cc1ccc(CCNc2ncnc3onc(-c4ccc(Cl)cc4)c23)cc1 | inactive: 66% |
| COc1ccc(NC(=O)CSc2nc3c(oc4ccccc43)c(=O)n2Cc2ccco2)cc1Cl | inactive: 131% |
| COc1cc(-c2nc(Cn3nnc(C(=O)Nc4cccc(Cl)c4)c3C)c(C)o2)cc(OC)c1OC | inactive: 96% |
| COc1ccc(CNC(=O)C2CCC(CNS(=O)(=O)c3ccc4c(c3)CCCC(=O)N4)CC2)cc1 (stereo not given) | inactive: 68% |
| Cc1ccc(-c2cn3c(n2)sc2cc(C(=O)NCCC4=CCCCC4)ccc23)cc1 | inactive: 88% |
| COc1ccc(-c2nc(S(=O)(=O)c3ccc(Cl)cc3)c(NCc3ccccc3)o2)cc1 | inactive: 137% |
| CCOC(=O)CSc1nc2c(sc3ccccc32)c(=O)n1CCO | active: -6% |
| CCN(CC)CCCNc1ncnc2c1cnn2-c1ccc(C)c(C)c1 | inactive: 77% |
| Cc1csc2nc(COc3cccc(NC(=O)c4ccccc4F)c3)cc(=O)n12 | inactive: 130% |
| COc1ccc(OCC(O)Cn2c(NCCO)nc3c2c(=O)n(C)c(=O)n3C)cc1 (stereo not given) | inactive: 67% |
| Cc1nn(CC(=O)N2CCN(c3ccc(Cl)cc3)CC2)c(=O)c2cccn12 | inactive: 85% |
| O=C(CSC1=Nc2ccccc2N=C(c2ccc(F)cc2)C1)Nc1ccccc1 | inactive: 100% |
| CCOc1ccc(NC(=O)c2c(NC(=O)Cc3ccccc3)sc3c2CCCCC3)cc1 | inactive: 70% |
| Cc1ccc(-n2c(=O)c3c(c4cc(C)ccc4n3C)n(CC(=O)N3CCCC3)c2=O)cc1 | inactive: 70% |
| Cc1[nH]n(-c2ccc(Cl)cc2)c(=O)c1C(=O)c1ccccc1 | inactive: 67% |
| Cc1ccc2nc(COc3ccccc3NC(=O)c3ccc(F)cc3)cc(=O)n2c1 | active: -3% |
| O=C(CSc1nc2c([nH]c3ccccc32)c(=O)n1-c1ccc(Cl)cc1)c1ccccc1 | inactive: 110% |
| Cc1cc(C)cc(NC(=O)Cn2cc(C(=O)C3CCCCC3)c3ccccc32)c1 | inactive: 68% |
